Consider 47 compounds from article PMC4336329 (PLoS ONE, 2015).

Structures are written as SMILES. Among all 310,000 compounds or so, about 2,200 (0.71%) showed an effect of 50% or more. Effects have a minus sign here. This is one part of the list.

The target in the assay is human ether-à-go-go-related gene (hERG) potassium channel (human, UniProt Q12809). Kind of assay: primary screen, population patch clamp on CHO cells stably expressing hERG.
Chain of human ether-à-go-go-related gene (hERG) potassium channel (Q12809 whole entry, looked up): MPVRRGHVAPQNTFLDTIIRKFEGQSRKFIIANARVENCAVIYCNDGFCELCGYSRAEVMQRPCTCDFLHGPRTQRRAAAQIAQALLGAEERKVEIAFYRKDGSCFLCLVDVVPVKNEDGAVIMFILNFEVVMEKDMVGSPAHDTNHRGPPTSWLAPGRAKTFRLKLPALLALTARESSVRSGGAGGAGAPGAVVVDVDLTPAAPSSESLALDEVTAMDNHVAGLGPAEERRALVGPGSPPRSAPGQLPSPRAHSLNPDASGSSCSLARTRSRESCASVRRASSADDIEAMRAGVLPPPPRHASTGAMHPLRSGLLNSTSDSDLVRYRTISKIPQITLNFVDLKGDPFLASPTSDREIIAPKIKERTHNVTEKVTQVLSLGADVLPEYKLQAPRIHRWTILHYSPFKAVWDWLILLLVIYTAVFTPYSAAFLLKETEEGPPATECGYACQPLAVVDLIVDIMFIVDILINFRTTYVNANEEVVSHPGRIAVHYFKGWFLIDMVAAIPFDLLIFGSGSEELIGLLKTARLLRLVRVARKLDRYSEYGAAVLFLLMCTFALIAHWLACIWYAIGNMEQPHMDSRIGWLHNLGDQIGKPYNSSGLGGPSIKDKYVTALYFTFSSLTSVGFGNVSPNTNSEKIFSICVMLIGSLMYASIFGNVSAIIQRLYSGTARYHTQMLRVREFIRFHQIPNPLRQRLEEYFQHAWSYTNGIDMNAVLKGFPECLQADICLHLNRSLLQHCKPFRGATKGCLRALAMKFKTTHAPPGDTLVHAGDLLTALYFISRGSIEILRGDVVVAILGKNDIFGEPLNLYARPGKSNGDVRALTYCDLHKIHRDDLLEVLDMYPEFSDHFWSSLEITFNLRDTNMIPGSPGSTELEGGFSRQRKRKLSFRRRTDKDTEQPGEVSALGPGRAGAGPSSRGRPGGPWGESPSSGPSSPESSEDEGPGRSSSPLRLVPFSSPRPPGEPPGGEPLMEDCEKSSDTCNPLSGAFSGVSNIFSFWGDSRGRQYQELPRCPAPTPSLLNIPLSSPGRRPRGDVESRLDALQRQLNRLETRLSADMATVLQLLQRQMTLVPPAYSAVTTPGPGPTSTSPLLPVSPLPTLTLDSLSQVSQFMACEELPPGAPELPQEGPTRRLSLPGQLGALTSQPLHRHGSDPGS
Consider `CC(c1ccccc1)c1nnc(NC(=O)c2ccc3c(c2)OCO3)s1` (centres unmarked), for which the “hERG current change (%, negative = inhibition) at 1uM” value came to 6.28%.

Regarding `Cc1ccc(C(=O)CSC2=NC(N)=C(C#N)C3(CCCCC3)C2C(N)=O)cc1` (centres unmarked), the “hERG current change (%, negative = inhibition) at 1uM” value is -14.2%.

For `C=CCOc1ccc(/C=N/NC(C)=O)cc1OCC`, the “hERG current change (%, negative = inhibition) at 1uM” value turned out to be 6.06%.

Turning to `Cc1ccc2cc(-c3noc(C4CCCO4)n3)c(=O)[nH]c2c1` (centres unmarked), the “hERG current change (%, negative = inhibition) at 1uM” value was 6.45%.

As to `CCc1nc(C)cn1S(=O)(=O)c1cc(C)c(OC)c(C)c1C`, the “hERG current change (%, negative = inhibition) at 1uM” value worked out at 1.85%. For the compound `COc1ccc(C(c2sc3ncnn3c2O)N2CCN(c3ccccc3F)CC2)cc1OC` (centres unmarked), the “hERG current change (%, negative = inhibition) at 1uM” value came out at 4.87%. With `CCCCn1c(SCC(=O)NC2CC(C)(C)NC(C)(C)C2)nc2cc(S(N)(=O)=O)ccc21.Cl` the figure was -3.2%.

On to `Clc1nc(N2CCOCC2)ncc1Br`, for which the “hERG current change (%, negative = inhibition) at 1uM” value was found to be 14.4%. With `Cc1ccc(NC(=O)Nc2ccc(Cl)cc2)c(Br)c1`, the “hERG current change (%, negative = inhibition) at 1uM” value was 5.94%.

On to `Cc1cccc(S(=O)(=O)Nc2ccncc2)c1`, for which the “hERG current change (%, negative = inhibition) at 1uM” value was found to be 19%. The figure for `Cc1ccc(S(=O)(=O)Nc2ccc(C(N)=O)cc2)cc1[N+](=O)[O-]` is 4.5%; for `CCCCN(CCCC)CCNC(=O)CNC(=O)c1cccs1` it is 5.88%; for `O=C(O)CSC(=S)N1CCCCC1` it is 8.96%.

As to `O=C(CN1C(=O)C2CC=CCC2C1=O)OCC(=O)c1ccc(Cl)c([N+](=O)[O-])c1` (centres unmarked), the “hERG current change (%, negative = inhibition) at 1uM” value is recorded as 12%. On to `CCC(C)c1ccccc1N1CC(C(=O)Nc2ccccc2N2CCCC2)CC1=O` (centres unmarked), for which the “hERG current change (%, negative = inhibition) at 1uM” value is listed as 9.33%.

For the compound `COc1cccc(C(=O)N2CCC(C(=O)NCc3ccc(C)cc3)CC2)c1`, the “hERG current change (%, negative = inhibition) at 1uM” value is -23.6%. With `c1ccc(-c2nnc(-c3ccco3)n2-c2ccccc2)cc1` the figure was 10.2%; with `Cc1ccccc1C(=O)NNC(=O)C1CCCN(c2ncccn2)C1` (centres unmarked), 6.51%; with `Cc1ccc(SC(C)C(=O)N2CCC(C(N)=O)CC2)cc1` (centres unmarked), 13.4%. Regarding `COc1ccc(NC(=O)Cn2nnc(C(=O)NCCc3ccc(OC)c(OC)c3)c2N)c(OC)c1`, the “hERG current change (%, negative = inhibition) at 1uM” value is -1.5%.

As for `CCOC(=O)C(=O)NCC(c1cccs1)S(=O)(=O)c1ccc(F)cc1` (centres unmarked), the “hERG current change (%, negative = inhibition) at 1uM” value was -5.9%. Take `CCn1ccnc1CN1CCN(CC=C(C)C)C(CCO)C1` (centres unmarked): the “hERG current change (%, negative = inhibition) at 1uM” value stood at 9.77%. Turning to `CCC/C(=C1/c2ccccc2C(=O)N1c1ccccc1)c1ccc2c(c1)OCO2`, the “hERG current change (%, negative = inhibition) at 1uM” value turned out to be 20%. With `CC(C)n1c(O)c(N=NC(=O)Cn2ccc(C(F)(F)F)n2)c2ccccc21` the figure was 15%; with `CCO/C(C)=C1\C(=O)Nc2ccccc21`, 13.1%; with `CCCn1c(=O)c2c(nc3n2CCN3Cc2ccco2)n(C)c1=O`, 3.87%. Consider `CCc1ccc(S(=O)(=O)Nc2ccc(-c3ccc4nncn4n3)cc2)s1`, for which the “hERG current change (%, negative = inhibition) at 1uM” value worked out at 8.42%. As for `COc1ccccc1N1CCN(C2CCCN(C(=O)CN3CCCCC3=O)C2)CC1` (centres unmarked), the “hERG current change (%, negative = inhibition) at 1uM” value is listed as 11.9%. The figure for `Cc1cc(C)n2nc(-c3cccc(Br)c3)cc2n1` is 12.3%; for `N#CCCN(C(=O)Nc1ccccc1)c1ccccc1` it is 14.1%; for `Cn1cnc2c(=O)[nH]cc([N+](=O)[O-])c21.O` it is 12.2%. The figure for `Cc1cc(=O)oc2cc(OC(C)C(=O)NCC3CCC(C(=O)O)CC3)c(Cl)cc12` (centres unmarked) is 9.39%. Take `CCCc1nnc(SCC(=O)N2CCCC(C)C2)n1CCOC` (centres unmarked): the “hERG current change (%, negative = inhibition) at 1uM” value came to 14.1%. Take `CC(=O)Nc1cccc2c1C(=O)N(c1ccccc1OC(C)=O)C2=O`: the “hERG current change (%, negative = inhibition) at 1uM” value turned out to be 23.8%. `C=CCc1ccccc1OCC(O)CN1CCOCC1` (centres unmarked): the “hERG current change (%, negative = inhibition) at 1uM” value is 13.4%.

For the compound `Cc1nn(C(C)C(=O)NCCN2CCCCCC2)c(=O)c2nn(-c3ccccc3)c(C)c12` (centres unmarked), the “hERG current change (%, negative = inhibition) at 1uM” value was determined as 14.9%. Regarding `O=C(NNC(=O)C12CC3CC(CC(C3)C1)C2)[C@@H]1C[C@H]1c1ccccc1`, the “hERG current change (%, negative = inhibition) at 1uM” value was determined as 11.5%.

As to `O=C(CCNS(=O)(=O)c1ccc(Br)s1)Nc1ccc(Cl)cc1`, the “hERG current change (%, negative = inhibition) at 1uM” value worked out at 2.75%. `Cc1ccc(-c2cc(-c3cccs3)[nH]n2)c(O)c1`: the “hERG current change (%, negative = inhibition) at 1uM” value is 6.98%. With `O=C(CCc1ccncc1)N1CCCC(Nc2ccc(F)cc2)C1` (centres unmarked) the figure was 4.5%; with `COc1ccc(OCCSc2nnc(C(C)NC(=O)c3ccccc3F)n2C)cc1` (centres unmarked), 3.22%; with `O=C(Nc1ccccc1NC(=O)c1ccco1)c1ccccc1`, 10.9%. With `Cc1cc(C)nc(SCc2ccc([N+](=O)[O-])cc2)n1` the figure was 6.29%. For `COc1cccc(NC(=O)CN(C)C(=O)c2c(C)nn(CC(C)C)c2Cl)c1`, the “hERG current change (%, negative = inhibition) at 1uM” value came out at 12.6%. For the compound `C=CCN1C(=O)/C(=C/c2ccccc2)S/C1=N/c1nccs1`, the “hERG current change (%, negative = inhibition) at 1uM” value was determined as 5.36%. For the compound `O=C(C1=C[C@H](c2ccc(Br)cc2)C[C@H](OCc2ccc(CO)cc2)O1)N1CCOCC1`, the “hERG current change (%, negative = inhibition) at 1uM” value is given as -1.15%. In the case of `O=C(NCc1ccccn1)c1ccc(Cl)c(S(=O)(=O)NCc2ccccc2)c1`, the “hERG current change (%, negative = inhibition) at 1uM” value is 0.792%.
